# According to paper PMC9911399, “Two distinct binding modes provide the RNA-binding protein RbFox with extraordinary sequence specificity”:
# Positions count from the first letter of the chain named. The list shows a part of the results.
# B1: AUAGUGC (DNA:RNA)
# RNA: GGGAGACCGGAAUUCAGAUUGUCCAUAGUGCUUAAAUCCCGUCGUAGCCACCA
# DNA 1: CAATCTGAATTCCGGTCTCCC
# DNA 2: TGGTGGCTACGACGGGATT
# B2: GUGCGGA (DNA:RNA)
# RNA: B1 RNA with A25G, A27G, G28C, U29G, C31A
# DNA 1: CAATCTGAATTCCGGTCTCCC
# DNA 2: TGGTGGCTACGACGGGATT
# B3: CGUAAAU (DNA:RNA)
# RNA: GGGAGACCGGAAUUCAGAUUGUCCCGUAAAUUUAAAUCCCGUCGUAGCCACCA
# DNA 1: CAATCTGAATTCCGGTCTCCC
# DNA 2: TGGTGGCTACGACGGGATT
# B4: UACUGUU (DNA:RNA)
# RNA: B3 RNA with C25U, G26A, U27C, A28U, A29G, A30U
# DNA 1: CAATCTGAATTCCGGTCTCCC
# DNA 2: TGGTGGCTACGACGGGATT
# B5: UUAUAAU (DNA:RNA)
# RNA: B3 RNA with C25U, G26U, U27A, A28U
# DNA 1: CAATCTGAATTCCGGTCTCCC
# DNA 2: TGGTGGCTACGACGGGATT
# B6: GCUCCCG (DNA:RNA)
# RNA: B3 RNA with C25G, G26C, A28C, A29C, A30C, U31G
# DNA 1: CAATCTGAATTCCGGTCTCCC
# DNA 2: TGGTGGCTACGACGGGATT
# B7: CGACUCU (DNA:RNA)
# RNA: B3 RNA with U27A, A28C, A29U, A30C
# DNA 1: CAATCTGAATTCCGGTCTCCC
# DNA 2: TGGTGGCTACGACGGGATT
# B8: CCGAGCC (DNA:RNA)
# RNA: B3 RNA with G26C, U27G, A29G, A30C, U31C
# DNA 1: CAATCTGAATTCCGGTCTCCC
# DNA 2: TGGTGGCTACGACGGGATT
# B9: GCCAUCU (DNA:RNA)
# RNA: B3 RNA with C25G, G26C, U27C, A29U, A30C
# DNA 1: CAATCTGAATTCCGGTCTCCC
# DNA 2: TGGTGGCTACGACGGGATT
# B10: UCCUCAG (DNA:RNA)
# RNA: B3 RNA with C25U, G26C, U27C, A28U, A29C, U31G
# DNA 1: CAATCTGAATTCCGGTCTCCC
# DNA 2: TGGTGGCTACGACGGGATT
# B11: UGCUCUG (DNA:RNA)
# RNA: B3 RNA with C25U, U27C, A28U, A29C, A30U, U31G
# DNA 1: CAATCTGAATTCCGGTCTCCC
# DNA 2: TGGTGGCTACGACGGGATT
# B12: GGCAAGC (DNA:RNA)
# RNA: B3 RNA with C25G, U27C, A30G, U31C
# DNA 1: CAATCTGAATTCCGGTCTCCC
# DNA 2: TGGTGGCTACGACGGGATT
# B13: AAGUCCU (DNA:RNA)
# RNA: B1 RNA with U26A, A27G, G28U, U29C, G30C, C31U
# DNA 1: CAATCTGAATTCCGGTCTCCC
# DNA 2: TGGTGGCTACGACGGGATT
# B14: UUCCUCC (DNA:RNA)
# RNA: B1 RNA with A25U, A27C, G28C, G30C
# DNA 1: CAATCTGAATTCCGGTCTCCC
# DNA 2: TGGTGGCTACGACGGGATT
# B15: AAUAGAU (DNA:RNA)
# RNA: B3 RNA with C25A, G26A, A29G
# DNA 1: CAATCTGAATTCCGGTCTCCC
# DNA 2: TGGTGGCTACGACGGGATT
# B16: CCCUGUG (DNA:RNA)
# RNA: B3 RNA with G26C, U27C, A28U, A29G, A30U, U31G
# DNA 1: CAATCTGAATTCCGGTCTCCC
# DNA 2: TGGTGGCTACGACGGGATT
# B17: CUCUGCC (DNA:RNA)
# RNA: B1 RNA with A25C, A27C, G28U, U29G, G30C
# DNA 1: CAATCTGAATTCCGGTCTCCC
# DNA 2: TGGTGGCTACGACGGGATT
# B18: GCCCAUG (DNA:RNA)
# RNA: B3 RNA with C25G, G26C, U27C, A28C, A30U, U31G
# DNA 1: CAATCTGAATTCCGGTCTCCC
# DNA 2: TGGTGGCTACGACGGGATT
# B19: UUUCCUU (DNA:RNA)
# RNA: B3 RNA with C25U, G26U, A28C, A29C, A30U
# DNA 1: CAATCTGAATTCCGGTCTCCC
# DNA 2: TGGTGGCTACGACGGGATT
# B20: CUGAGAG (DNA:RNA)
# RNA: B3 RNA with G26U, U27G, A29G, U31G
# DNA 1: CAATCTGAATTCCGGTCTCCC
# DNA 2: TGGTGGCTACGACGGGATT
# Target: T1, RBFOX1 RRM (Homo sapiens, UniProt Q9NWB1 109-208)
# T1 sequence: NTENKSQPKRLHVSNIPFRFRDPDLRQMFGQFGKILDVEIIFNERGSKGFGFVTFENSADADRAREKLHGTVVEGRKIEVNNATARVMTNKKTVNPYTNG
# Assay: EMSA; HiTS-Eq, 1 nM pool, 10 min; buffer printed only for the single-RNA assays: 10 mM Tris pH 7.5, 150 mM NaCl, 3.4 mM EDTA, 0.001% NP-40, 30 C
# Conditions: tags: His6 N-terminal (pET28a); label: 5' 32P
# Method in brief: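 Relative association constants, normalised to the cognate motif, were derived by comparing read counts of each RNA species with those of the control reaction. The RNA sequenced was the free fraction, separated by 8% native PAGE after a 10 min equilibration in 50 µL of 1 nM 5′-radiolabelled RNA (7 randomized nucleotides) with increasing concentrations of purified wild-type or mutant RbFox RRM.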
row,Binder,binding signal
1,B1,0.0118 KA relative to UGCAUGU
2,B2,0.016 KA relative to UGCAUGU
3,B3,0.0013 KA relative to UGCAUGU
4,B4,0.0139 KA relative to UGCAUGU
5,B5,0.00452 KA relative to UGCAUGU
6,B6,0.00379 KA relative to UGCAUGU
7,B7,0.00984 KA relative to UGCAUGU
8,B8,0.00658 KA relative to UGCAUGU
9,B9,0.00498 KA relative to UGCAUGU
10,B10,0.0155 KA relative to UGCAUGU
11,B11,0.0266 KA relative to UGCAUGU
12,B12,0.0166 KA relative to UGCAUGU
13,B13,0.00459 KA relative to UGCAUGU
14,B14,0.00592 KA relative to UGCAUGU
15,B15,0.00406 KA relative to UGCAUGU
16,B16,0.004 KA relative to UGCAUGU
17,B17,0.0121 KA relative to UGCAUGU
18,B18,0.0116 KA relative to UGCAUGU
19,B19,0.0063 KA relative to UGCAUGU
20,B20,0.018 KA relative to UGCAUGU
